Measurements: PubChem BioAssay AID1671193 (National Center for Advancing Translational Sciences (NCATS), 2021)
Among all 150,000 compounds or so, about 180 (0.12%) were called active. Inconclusive results, whose numbers are uncertain, are shown with a selection of clear calls. Calls follow the shape of the dose curve; as a rule, active = well fitted cell-killing curve with a large enough effect; inconclusive = small, poorly fitted or top-dose-only effect, or effect the other way; inactive = flat fitted curve, though single readings scatter. A potency beside an inconclusive call is a rough fit, not a confirmed value.

assay: GF-AFC viability counterscreen for inhibitors of alpha-synuclein gene (SNCA) expression; details: HEK-293-SNCA-luc viability, GF-AFC fluorescence, 24 h; activity change, negative = cytotoxicity: at 57.1 µM (top of the series) unless noted; also: nearly all actives have a fitted effect of over 30% in size;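 as to activity change, negative = cytotoxicity: 0% = DMSO-treated cells and -100% = medium-only wells without cells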
How it was run: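 HEK-293-SNCA-luc cells (1500/well) plated 24 h, then exposed 24 h to a dilution series; GF-AFC added 30 min at 37C, fluorescence 405/540 nm; normalised to medium-only and DMSO wells, Hill fit.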
Potency is read from the fitted curve at half-maximal effect; tags tell the direction and shape of the fitted curve.

| Compound | activity change, negative = cytotoxicity | Potency |
| --- | --- | --- |
| COCCNC(=O)c1nc2sccn2c1-c1ccc(C(F)(F)F)cc1 | inactive: 2.73% | – |
| Cn1cc(CC(=O)N2CCCc3ncc(C(=O)Nc4cccc(Cl)c4)cc32)c2ccccc21 | – | inconclusive: 31.6 µM [cytotoxic, single point] |
| Cc1ccccc1CN1C[C@@H]2C(=O)N(Cc3ccc4c(c3)OCO4)C(=O)[C@@H]2C1 | – | inconclusive: 22.4 µM [cytotoxic, single point] |
| COc1ccc(C(=O)N2CCC(C(=O)Nc3ccccc3Cl)CC2)cc1 | – | inconclusive: 12.6 µM [cytotoxic, partial curve, poor fit] |
| COc1ccc(C(=O)c2cn(CC(=O)Nc3ccc4c(c3)OCO4)c3ccc(OC)cc3c2=O)cc1 | – | inconclusive: 8.91 µM [cytotoxic, partial curve] |
| O=C(NCCc1ccc(Cl)cc1)c1cccn1-c1nnc(N2CCCC2)s1 | – | inconclusive: 39.8 µM [cytotoxic, single point] |
| O=C(Cn1ccn2nc3c(c2c1=O)CCCCC3)Nc1ccccc1F | inactive: -14.2% | – |
| Cc1ccc2c(n1)O[C@@H](COCc1ccccc1)CN(Cc1cccs1)C2=O | inactive: -14% [at 23.9 µM] | – |
| O=C(NCCc1ccccc1)c1ccc(CSc2nc3ccncc3n2Cc2ccccc2)cc1 | – | inconclusive: 39.8 µM [cytotoxic, single point] |
| CC(=O)OC1[C@H]2[C@@H](C[C@@H](C)[C@@H]3C=CC(=O)[C@@]13C)OC(=O)[C@@H]2C (stereo not given in full) | – | inconclusive: 29.9 µM [cytotoxic, single point] |
| COc1ccc(C2(c3nc(C4CC(=O)N(C5CCCCC5)C4)no3)CC2)cc1 (stereo not given) | inactive: 3.09% | – |
| CN(Cc1ccccc1)C(=O)C[C@@H]1CCNC[C@@H]1Cc1cc(-c2ccc(C(C)(C)C)cc2)on1 | – | inconclusive: 39.8 µM [cytotoxic, single point] |
| Cn1nccc1C(O)c1cc2n(n1)CCN(C/C=C/c1ccccc1)C2 (stereo not given) | inactive: 9.44% | – |
| Cc1cc(C)c(NC(=O)Cn2c(=O)n(Cc3ccc(C(=O)NCc4ccco4)cc3)c(=O)c3sccc32)c(C)c1 | – | inconclusive: 31.6 µM [cytotoxic, single point] |
| Cc1nnc(N2CCCC(C(=O)NCCc3ccccc3)C2)c2nn(-c3ccccc3)c(C)c12 (stereo not given) | – | inconclusive: 1.78 µM [cytotoxic, full curve, poor fit] |
| COc1ccc(C)cc1Nc1nc(N)c2cc(OC)c(OC)cc2n1 | – | inconclusive: 39.8 µM [cytotoxic, single point] |
| CCN1CCN(Cc2c(O)ccc3cc(-c4ccc(OC)cc4)c(=O)oc23)CC1 | – | inconclusive: 20 µM [rising, partial curve] |
| CCc1ccc(CN2CCCC(CNC(=O)c3cccc(OC)c3OC)C2)o1 (stereo not given) | inactive: -8.97% | – |
| CCN(Cc1cccc2cnccc12)CC1CCCN(CCc2cccc(F)c2)C1 (stereo not given) | – | inconclusive: 15.8 µM [cytotoxic, single point] |
| Cc1ccc(CSc2nc3cccnc3n2Cc2ccc(C(=O)NCCc3cccs3)cc2)cc1 | – | inconclusive: 39.8 µM [cytotoxic, single point] |

| Compound | activity change, negative = cytotoxicity | Potency |
| --- | --- | --- |
| COc1cccc(CCC(=O)N2CCCN(c3cc(-c4ccc(C)c(C)c4)[nH]n3)CC2)c1 | – | inconclusive: 25.1 µM [cytotoxic, partial curve, poor fit] |
| COc1ccc(C2CC(=O)N(CC(=O)Nc3cccc(C)c3C)c3ccccc3S2)cc1OC (stereo not given) | inactive: -11.4% | – |
| Cn1nccc1OCc1cn2c(=O)n(C)cc(-c3cccc(C(F)(F)F)c3)c2n1 | – | inconclusive: 6.31 µM [cytotoxic, full curve, poor fit] |
| COc1cccc2c1OCCCN(C(=O)CC1COCCN1)C2 (stereo not given) | inactive: -4.09% | – |
| CC1=NS(=O)(=O)N(Cc2ccccc2)C=C1C(=O)OCC1CC1 | – | inconclusive: 3.16 µM [rising, full curve, poor fit] |
| COCCNC(=O)C1COC2(CCN(C(=O)c3ccccc3F)CC2)N1C(=O)c1cccc(OC)c1 (stereo not given) | – | inconclusive: 7.08 µM [cytotoxic, full curve, poor fit] |
| O=C(O)C[C@@H]1CCN(C(=O)COc2ccccc2)C[C@@H]1CCN1CCCCC1 | inactive: 6.09% [at 87.6 µM] | – |
| COc1ncccc1-c1cnc2[nH]cc(CC(=O)Nc3ccccc3)c2c1 | – | inconclusive: 28.2 µM [cytotoxic, partial curve, poor fit] |
| CC(C)(Oc1nn(Cc2cccc(Cl)c2)c2ccccc12)C(=O)NCCCN1CCCC1=O | – | inconclusive: 25.1 µM [cytotoxic, partial curve, poor fit] |
| CC1=C[C@@H](CN(C)CCO)[C@H](C(C)C)C[C@H]1Cc1nnc(-c2ccccc2F)o1 | – | inconclusive: 28.2 µM [cytotoxic, partial curve] |
| Cc1cc(C)c2c(N)c(C(=O)Nc3ccccc3C(F)(F)F)sc2n1 | – | inconclusive: 25.1 µM [rising, single point] |
| Fc1ccc(OC2CN(Cc3cccc4ccccc34)C2)cc1F | inactive: 2.94% | – |
| O=C(N[C@@H]1CN(C(=O)c2nccc3ccccc23)C[C@H]1CO)c1ccccc1 | – | inconclusive: 2 µM [cytotoxic, partial curve, poor fit] |
| Cc1ccccc1C(=O)NC1CCN(c2nccc(Nc3ccccc3F)n2)CC1 | – | inconclusive: 5.01 µM [cytotoxic, single point] |
| C=C(C(=O)O[C@H]1C/C(C)=C/CC/C(CO)=C/[C@H]2OC(=O)C(=C)[C@H]12)C(O)CO (stereo not given in full) | – | inconclusive: 26.1 µM [cytotoxic, single point] |
| CC1=C(C(=O)Nc2ccccc2)C(c2ccc(O)cc2)n2nc(-c3ccc(Cl)cc3)nc2N1 (stereo not given) | – | inconclusive: 39.8 µM [cytotoxic, single point] |
| Cc1nn(-c2ccc(C(C)(C)C)cc2)c(C)c1[C@@H]1C=C[C@@H](NC(=O)CCC(=O)O)C1 | inactive: 4.16% [at 87.6 µM] | – |
| COc1ccc(Br)cc1CNC(=O)CSc1n[nH]c(-c2ccccc2)n1 | – | inconclusive: 25.1 µM [cytotoxic, single point] |
| CSc1ccccc1N1CCN(CCCCCC(=O)NC2CCCc3ccccc32)CC1 (stereo not given) | – | inconclusive: 15.8 µM [cytotoxic, partial curve] |
| N#Cc1cccc(-c2ccnc(N[C@H]3CO[C@H]4[C@@H]3OC[C@@H]4NC(=O)C3CCCCC3)n2)c1 | inactive: -0.824% [at 87.6 µM] | – |
